# PubChem BioAssay AID504845 (National Center for Advancing Translational Sciences (NCATS), 2011)
# “And” between values parts separate entries of the source, which are not always exact repeats. Equal entries are not always repeated. The campaign covered roughly 390,000 compounds. About 150 (0.038%) were called active. Roughly 3% stayed inconclusive and do not appear here. Calls come from the whole dose curve; as a rule, active = well fitted inhibition curve with a large enough effect; inconclusive = small, poorly fitted or top-dose-only effect; inactive = no such curve, though single readings can be large or run the other way. This is a selection; strong and weak results do not stand in their true shares. More than one record can exist for a structure, and the calls need not agree.
# Biological target: Regulator of G-protein signaling 4 (Homo sapiens) (UniProt P49798)
# UniProt P49798, sequence (P49798 whole entry, looked up): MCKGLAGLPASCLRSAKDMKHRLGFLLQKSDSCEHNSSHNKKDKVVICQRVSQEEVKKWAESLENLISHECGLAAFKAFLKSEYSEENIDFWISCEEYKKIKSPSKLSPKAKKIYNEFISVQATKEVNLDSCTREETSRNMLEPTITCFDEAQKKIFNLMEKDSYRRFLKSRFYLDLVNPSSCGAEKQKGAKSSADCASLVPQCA
# Experiment: Inhibitors of Regulator of G Protein Signaling (RGS) 4: qHTS; note: nearly all actives have a fitted effect of over 75% in size
# Conditions: Transcreener GDP fluorescence polarization, RGS4-accelerated GTP hydrolysis; series mostly up to 114 µM; activity change, negative = inhibition: at the top concentration
# Method in brief: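 MLSMR compounds (23 nl, pin-transferred) preincubated 10 min at room temperature with a 500nM (2x) first reagent, then RGS4 at 900nM (2x) plus Transcreener GDP mix added; fluorescence polarization (620/688 nm) read before and after 90 min at 30 °C.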
# % is set by controls: 0 for no effect and ±100 for the full control effect; potency is the fitted concentration of half-maximal effect.
SMILES,"activity change, negative = inhibition",Potency
O=C1NC(O)=NC1(c1ccccc1)c1ccccc1,inactive: -15.8% [at 56.9 µM],
CN(C)C/C=C(\c1ccc(Br)cc1)c1cccnc1,,inactive
CN1Cc2c(N)cccc2C(c2ccccc2)C1 (centres undefined),,inactive
CC(=O)O[C@H]1C(=O)[C@]2(C)[C@H]([C@H](OC(=O)c3ccccc3)[C@]3(O)C[C@H](OC(=O)[C@H](O)[C@@H](NC(=O)c4ccccc4)c4ccccc4)C(C)=C1C3(C)C)[C@]1(OC(C)=O)CO[C@@H]1C[C@@H]2O,inactive: 2.09%,
O=C1NC(=O)C(c2ccccc2)(c2ccccc2)N1,,inactive
CCCCC(C=O)NC(=O)C(CC(C)C)NC(=O)OCc1ccccc1 (centres undefined),inactive: -159% [at 56.9 µM],
Cc1ccc(/C=C2\C(=O)ON=C2c2ccccc2)o1,inactive: -37.2%,
CN[C@@H]1CC[C@H](c2ccc(Cl)c(Cl)c2)c2ccccc21,inactive: -28.5%,
CC1CCC(NC(=O)c2nn(C)c3c2CS(=O)(=O)c2ccccc2-3)CC1 (centres undefined),inactive: 60.8%,
CNC(=O)[C@H]1O[C@@H](n2cnc3c(NCc4cccc(I)c4)nc(Cl)nc32)[C@H](O)[C@@H]1O,inactive: -20.9%,
N#CC(C#N)=C(N)/C(C#N)=C/c1cc(O)c(O)c(O)c1,inactive: -37.8%,
CCN(CC)CCCCCCCCOC(=O)c1cc(OC)c(OC)c(OC)c1,inactive: 22.2%,
CCCCNC(=S)NNC(=O)c1ccncc1,inactive: 66.3%,
C=CCc1cccc(C=NNC(=O)CN2CCN(Cc3ccccc3)CC2)c1O,inactive: 12.6% [at 56.9 µM],
c1ncc(CC2CCNCC2)[nH]1,inactive: -24.4% [at 56.9 µM],
Cn1ccc2cc3c(cc21)CCN3C(=O)Nc1cccnc1,inactive: -43.7%,
O=c1cc(-c2ccccc2)oc2cccc(O)c12,inactive: -10.2%,
CCOC(=O)Nc1ccc2c(c1)N(C(=O)OCCN(C)C)c1ccccc1CC2,inactive: -32.7%,
Cc1cc(N)c2ccccc2[n+]1CCCCCCCCCC[n+]1c(C)cc(N)c2ccccc21,,active: 23.8 µM
CN(C)[C@@H]1CCC[C@@H]1OC(=O)C(c1ccccc1)c1ccccc1,inactive: 27.5%,
COc1cccc(NC(=O)CSc2nc3ccccc3n2C)c1,inactive: -9.15%,
C=CCC1C=C(Cc2ccccc2)CC(CC=C)N1 (centres undefined),inactive: 20%,

SMILES,"activity change, negative = inhibition",Potency
OCC[C@H]1C[C@H](O)[C@@H](O)[C@]2(OCCc3ccccc32)O1,inactive: 23.4%,
CNC1(C)[C@H]2CC[C@H](C2)C1(C)C (some centres undefined),inactive: 15.3%,
CN(C)/C=C1\C=C(c2ccccc2)OC1=O,inactive: -50.8%,
NC(CO)C(=O)NNCc1ccc(O)c(O)c1O (centres undefined),,active: 9.47 µM
CC(OC(=O)c1snc(C(=O)NC2CCCCC2)c1N)C(=O)NC(C)(C)C (centres undefined),inactive: 55.5%,
COc1ccc(NC(=O)COc2ccc(-c3nn(C)c(=O)c4ccccc34)cc2)cc1,inactive: -31.6%,
Cc1ccc(N2C(=O)/C(=C/c3ccco3)SC2=S)cc1,inactive: -25.3%,
CC(/C=N/n1c(-c2ccco2)n[nH]c1=S)=C\c1ccccc1,inactive: -35.1%,
O=C1NC(=O)/C(=C/c2ccc(N3CCOCC3)o2)N1,inactive: -24.6%,
OCCC1CN(Cc2ccsc2)CCN1C1CCCC1 (centres undefined),inactive: 72.8%,
C[C@]1(C2CCCC2)Cc2cc(OCC(=O)O)c(Cl)c(Cl)c2C1=O,inactive: -3.49%,
COc1ccc(N2CCN(C(=O)c3cc4c(s3)-c3ccccc3OC4)CC2)cc1,inactive: 2.01%,
COC(=O)C1=C[C@@H](C(=O)OC)[C@@H]2C3=C(C(=O)[C@@]2(CC(C)C)NC(=O)c2ccccc2)[C@H](C)n2c(=O)n(-c4ccccc4)c(=O)n2[C@@H]3C1,inactive: 3.77%,
CN(C)[C@@H]1C(=O)C(C(N)=O)=C(O)[C@@]2(O)C(=O)C3=C(O)c4c(O)ccc(Cl)c4[C@@H](O)[C@H]3C[C@@H]12,inactive: -14.6%,
O=C(CCCN1CCC(O)(c2cccc(C(F)(F)F)c2)CC1)c1ccc(F)cc1,,inactive
Oc1cc2c(c(Cl)c1O)CCNCC2c1ccccc1 (centres undefined),inactive: 21.5%,
O=C1S/C(=C\c2ccc(N3CCOCC3)o2)C(=O)N1Cc1c(F)cccc1Cl,inactive: -109%,
CCCCC/C=C\C[C@H](O)/C=C/c1cccc(C[C@H](O)CCCCO)n1,inactive: -5.04%,
O=C1CC(c2ccc(F)cc2)Cc2nc(N3CCOCC3)ncc21 (centres undefined),inactive: 169%,
CC(C)NCC(O)c1cc(O)cc(O)c1 (centres undefined),inactive: 5.84%,
CC(=O)/C(C)=N/O,inactive: -3.44% [at 56.9 µM],
CCCn1cnc2c1c(=O)n(CCCCC(C)=O)c(=O)n2C,,inactive and active: 23.8 µM

SMILES,"activity change, negative = inhibition",Potency
CCCCCCCCCCCCCCSCC(=O)O,inactive: 38.5% [at 56.9 µM],
CC(C)(CO)Cc1cc(C(C)(C)C)c(O)c(C(C)(C)C)c1,inactive: -11.9%,
C#CCN(C)CCCOc1ccc(Cl)cc1Cl,,inactive
Cn1c(=O)c2c(ncn2CCO)n(C)c1=O,inactive: 19.8%,
CN(Cc1cnccn1)Cc1nc(Cc2ccccc2F)no1,inactive: 67.2%,
CC[C@@](N)(C(=O)O)c1ccc(C(=O)O)cc1,inactive: 402% [at 56.9 µM],
O=c1oc(/C=C/c2ccco2)nc2sc3c(c12)CCC3,inactive: 75.1%,
C=C1C(=O)O[C@@H]2[C@H]3O[C@]3(C)CCC=C(C)CC[C@@H]12,inactive: -39% [at 56.9 µM],
CC(=O)OCC1=C(C(=O)O)N2C(=O)[C@@H](NC(=O)Cc3cccs3)[C@H]2SC1,inactive: -20%,
NCCCC(N)(C(=O)O)C(F)F (centres undefined),,inactive
NCCNS(=O)(=O)c1cccc2c(Cl)cccc12,,inactive
Cc1ccccc1C(OCCN(C)C)c1ccccc1 (centres undefined),,inactive
CC(=O)N1CCN(C)CC1,inactive: -105% [at 56.9 µM],
COc1cc2c(cc1OC)C(Cc1ccc(O)cc1)NCC2 (centres undefined),inactive: -29.7%,
O=C(c1cc([N+](=O)[O-])ccc1Cl)N1CCN(c2ccccn2)CC1,inactive: 59%,
CCN1/C(=C\C(=S)Nc2ccccc2)Sc2ccccc21,inactive: -36.3%,
Cc1cccc(C)c1OCC(N)C(C)C (centres undefined),inactive: 4.09%,
CCCCNc1ccc(C(=O)OCCN(C)C)cc1,,inactive
COc1ccc(NC(=O)c2ccc(-c3ccc(-c4noc(C)n4)cc3C)cc2)cc1N1CCN(C)CC1,inactive: 38.5%,
COC(=O)C1=C(C)NC(C)=C(C(=O)OCCSc2ccccc2)[C@@H]1C,inactive: -73.2% [at 56.9 µM],
CCCC[C@H]1CCCO[C@@](C(=O)NCc2ccc(C)o2)(C(F)(F)F)C1,inactive: -45.2%,
C=C(C)CC1N(c2cccc(OC)c2)C(=O)[C@@H]2C(C(=O)O)[C@H]3C=C[C@@]12O3 (some centres undefined),inactive: -12.1%,

SMILES,"activity change, negative = inhibition",Potency
O=C(O)c1cccnc1C(=O)O,,inactive
COc1ccc(OC)c(NC(=O)CSc2nc3n[nH]c(C)c3c(=N)n2-c2cccc(Cl)c2C)c1,inactive: 68.1%,
COc1ccc(N=C2SC(C(=O)Nc3ccc4c(c3)OCO4)CC(=O)N2C)cc1 (centres undefined),inactive: -13.5%,
CC1(C)Cc2cccc(OCC(=O)Nc3ccccc3N3CCOCC3)c2O1,inactive: 70%,
CC/C(=C(\c1ccccc1)c1ccc(OCCN(C)C)cc1)c1ccccc1,,inactive
C1CCC(NC(=NC2C3CC4CC(C3)CC2C4)N2CCOCC2)CC1 (centres undefined),,active: 0.336 µM
CCOC(=O)c1cc2c(=O)n3ccccc3nc2n(Cc2ccco2)c1=NC(=O)c1ccccc1OC,inactive: -26.6%,
O=C(N/N=C/C(Br)=C/c1ccccc1)c1n[nH]c2c1CCC2,inactive: -24.6%,
Cn1c(=O)c2c(nc(/C=C/c3cccc(Cl)c3)n2C)n(C)c1=O,inactive: -3.57%,
NC(=S)c1ccc[n+]([C@@H]2O[C@@H](COP(=O)([O-])OP(=O)(O)OC[C@H]3O[C@@H](n4cnc5c(N)ncnc54)[C@H](OP(=O)(O)O)[C@@H]3O)C(O)C2O)c1 (some centres undefined),,active: 26.7 µM
Cc1nc2c([nH]1)c(=O)n(C)c(=O)n2Cc1ccco1,,inactive
CC12CN3CC(C)(CN(C1)C3c1ccc(Cl)cc1Cl)C2O (centres undefined),inactive: 65.9%,
CC(NCCc1ccc(O)cc1)C(O)c1ccc(O)cc1 (centres undefined),inactive: -7.32%,
CCC(=O)Nc1cccc(NC(=O)c2cccnc2)c1,inactive: 61.4%,
c1ccc2sc(N3CCN(Cc4ccc5c(c4)OCO5)CC3)nc2c1,inactive: -185% [at 56.9 µM],
COc1ccc(CCCO[C@@H](Cn2ccnc2)c2ccc(OC)cc2)cc1,inactive: 293% [at 56.9 µM],
COC(=O)/C=C1\SC(=Nc2ccc(Cl)c(Cl)c2)NC1=O,inactive: -32.7%,
CCN(CC)CCCN1C(=O)C(=O)/C(=C(/O)c2cc(C)ccc2C)C1c1cccnc1 (centres undefined),inactive: 66.8%,
CCN1C(=O)C=CC1=O,inactive: 10.9% [at 56.9 µM],
Cc1ccc(CNC(=O)c2cc3c(s2)CN(Cc2ccccc2)C3)cc1,inactive: 74%,
C[N+](C)(C)CCOC(N)=O,,inactive
COc1ccccc1NC(=O)C12CC3CC(C1)CC(c1ccc(C)cc1)(C3)C2,inactive: 54.1%,

SMILES,"activity change, negative = inhibition",Potency
COc1ccc(NC(=O)CCCC(=O)OCC(=O)c2cccc(OC)c2)cc1,inactive: 65.3%,
COC(=O)c1[nH]c2ccc(C)cc2c1NC(=O)C1=COCCO1,inactive: 55%,
CN1CCN2c3ccccc3Cc3ccccc3C2C1 (centres undefined),,inactive
N[C@@H](COP(=O)(O)O)C(=O)O,,inactive
CCN1CCCC1CNC(=O)c1cc(S(N)(=O)=O)ccc1OC (centres undefined),inactive: -1.83%,
CC(C)(C)NC(=O)NC(=O)COC(=O)Cc1c(Cl)cccc1Cl,inactive: 64.9%,
O=C1N=C(O)CN1/N=C/c1ccc(-c2ccc([N+](=O)[O-])cc2)o1,,inactive
CCOC(=O)C1=C(C)N[C@@]2(O)c3ccccc3C(=O)[C@@]12O,inactive: -14.6%,
O=C(Nc1ccc([N+](=O)[O-])cc1Cl)c1cc(Cl)ccc1O,inactive: -3.66%,
COc1ccc(/C=N/NC(=O)c2ccc(CSc3nncn3C)cc2)cc1OC,inactive: 77.7%,
N[C@]1(C(=O)O)CCc2cc(P(=O)(O)O)ccc21,inactive: 212% [at 56.9 µM],
NS(=O)(=O)c1cc2c(cc1Cl)NC(C1C[C@H]3C=C[C@@H]1C3)NS2(=O)=O (some centres undefined),inactive: 4.61%,
COCCCNc1nc2cc(OC)c(OC)cc2c2nc(-c3ccccc3)nn12,inactive: -6.11%,
Nc1ccccc1C(=O)C[C@H](N)C(=O)O,inactive: 11.9%,
COc1ccc(CCn2nnnc2C2(c3ccc(C)cc3)CC2)cc1,inactive: 9.14% [at 56.9 µM],
CCOC(=O)C(C)Oc1cccc2c(=O)n(CC(=O)Nc3ccc4c(c3)OCCO4)ccc12 (centres undefined),inactive: -35.2%,
OCC[C@@H]1C[C@@H](O)[C@H](O)[C@@]2(OCCc3ccccc32)O1,inactive: -35.3%,
CCN1CCN(C(=O)Cn2ncc3c([nH]c4ccc(C)cc43)c2=O)CC1,inactive: 65.1%,
CCCN(CC1CC1)c1nc(C)nc(Nc2c(Cl)cc(Cl)cc2Cl)c1Cl,,inactive
CCCCCC(O)CCCC(=O)O (centres undefined),,inactive
CCOC(=O)Cc1c(C)nc(-c2ccccc2)[nH]c1=O,inactive: 54.4%,
